Assay results published in PubChem BioAssay (NCATS).
Some of the results follow. These are further read-outs of the screen, such as a control signal, another cell line or another target. No call is given for them. Most of these compounds were active or inconclusive in the main read-out, so they are no random draw. The note in brackets gives the kind of curve behind each potency; many fits are weak.

Assay: qHTS Assay for Lipid Storage Modulators (AID 1519)
Conditions: Drosophila S3 cells, BODIPY lipid droplet/cell ratio, laser cytometry, cells loaded with oleic acid
How it was run: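 Cells seeded at 5,000 per well were treated with compounds over a concentration series and loaded with oleic acid (400 uM, as added). Lipid droplet fluorescence (488 nm excitation, 500-530 nm channel) was read by laser-scanning cytometry and normalized to 20 uM Triacsin C.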

[1] = measured here: cell count channel max response
[2] = measured here: cell number channel AC50
[3] = measured here: lipid (BODIPY) channel AC50
[4] = measured here: lipid channel max response
Tags describe the fitted curve by direction and shape.

SMILES | max response [1] [%] | AC50 [2] | AC50 [3] | max response [4] [%]
CC(C)Oc1ccc2c(=O)c3cc(C(=O)O)ccc3oc2c1 | 69.4 | 14100 nM [rising, partial curve] | 14100 nM [rising, partial curve] | 89.2
COc1ccc2[nH]cc(CCNc3cc(-c4cccc(C#N)c4)ncn3)c2c1 | 12.9 | 89.1 nM [rising, full curve] | 89.1 nM [rising, full curve] | 17.7
Cc1ccccc1-c1nccc(Nc2ccc(F)cc2)n1 | 8.25 | 3980 nM [rising, partial curve] | 5010 nM [rising, partial curve] | 10.9
COc1ccc2[nH]cc(CCNc3ncncc3-c3cccc(C#N)c3)c2c1 | 22.1 | 100 nM [rising, full curve, poor fit] | 126 nM [rising, full curve, poor fit] | 23.8
CNc1ncnc2ccc(-c3ccccc3C#N)cc12 | 33.3 | 1120 nM [rising, partial curve, poor fit] | 282 nM [rising, partial curve, poor fit] | 41.7
Cc1sc(N)c(C(=O)c2cccc(C(F)(F)F)c2)c1C | 94.7 | 15800 nM [rising, partial curve] | 15800 nM [rising, partial curve] | 112
CN(C)c1nc(-c2cccc(C#N)c2)nc2ccccc12 | 20.1 | 1780 nM [rising, partial curve] | 501 nM [rising, partial curve] | 26.9
Nc1nc2c(c(=O)[nH]1)N=C(CNc1ccc(C(=O)NC(CCC(=O)O)C(=O)O)cc1)CN2 (stereo unspecified) | 40.2 | 12600 nM [rising, partial curve, poor fit] | 14100 nM [rising, partial curve, poor fit] | 56
CCCNC(=O)N1N=C(c2ccc(N)cc2)c2cc3c(cc2[C@H]1C)OCO3 | 91 | 398 nM [rising, full curve] | 316 nM [rising, full curve] | 121
COc1ncc2nc(CCc3ccccc3)c(=O)n(-c3ccccc3)c2n1 | 34.2 | 2820 nM [rising, full curve] | 2820 nM [rising, full curve] | 39.8
O=C(c1ccco1)N1CCC2(CCCN(c3ccccn3)C2)CC1 | 0.458 | 79.4 nM [rising, full curve, poor fit] | 50.1 nM [rising, full curve, poor fit] | 9.38
Cc1nc2cncnc2n(-c2ccccc2)c1=O | 31.3 | 4470 nM [rising, full curve, poor fit] | 7080 nM [rising, partial curve, poor fit] | 41.8
O=c1cnc2cnc(N3CCOCC3)nc2n1Cc1cccs1 | 31 | 1580 nM [rising, full curve, poor fit] | 1580 nM [rising, full curve, poor fit] | 38.4
CCNc1ncc2nc(-c3ccc(Cl)cc3)c(=O)n(C)c2n1 | 39 | 3980 nM [rising, partial curve, poor fit] | 2510 nM [rising, full curve] | 45.4
COc1ccccc1CNc1nc(-c2ccc3c(c2)OCO3)nc2ccccc12 | 24.7 | 44.7 nM [rising, full curve] | 35.5 nM [rising, full curve] | 33.4
COc1ccccc1CNc1ccnc(-c2cccc(NS(C)(=O)=O)c2)n1 | 11.7 | 447 nM [rising, full curve] | 501 nM [rising, full curve] | 14.2
CCCCCC(=O)O[C@@]1(C(C)=O)CCC2C3CCC4=CC(=O)CC[C@@]4(C)C3CC[C@]21C (stereo partly specified) | 32.9 | 31600 nM [rising, single point] | 39800 nM [rising, single point] | 56.4
Cn1cnc2c(NCc3ccccc3)nc(NCCO)nc21 | 90 | 2240 nM [rising, full curve] | 2240 nM [rising, full curve] | 111
Cn1c(=O)c(-c2ccc(F)cc2)nc2cncnc21 | 31.4 | 39.8 nM [rising, full curve, poor fit] | 39.8 nM [rising, full curve, poor fit] | 44.4
